Experimental data taken from patent publication US10357514B2, “Treatment of cancer using anti-CD19 Chimeric Antigen Receptor” (The Trustees of the University of Pennsylvania, priority 2014, dated 2019).

Tested on: A/H1N1 strain A/New Jersey/8/76
Format: in vivo, human
Conditions: RAD001 cohorts

SMILES: CO[C@H]1C[C@@H]2CC[C@@H](C)[C@@](O)(O2)C(=O)C(=O)N2CCCC[C@H]2C(=O)O[C@H]([C@H](C)C[C@@H]2CC[C@@H](OCCO)[C@H](OC)C2)CC(=O)[C@H](C)/C=C(\C)[C@@H](O)[C@@H](OC)C(=O)[C@H](C)C[C@H](C)/C=C/C=C/C=C/1C [RAD001, (1R,9S,12S,15R,16E,18R,19R,21R,23S,24E,26E,28E,30S,32S,35R)-1,18-dihydroxy-12-{(1R)-2-[(1S,3R,4R)-4-(2-hydroxyethoxy)-3-methoxycyclohexyl]-1-methylethyl}-19,30-dimethoxy-15,17,21,23,29,35-hexamethyl-11,36-dioxa-4-aza-tricyclo[30.3.1.04,9]hexatriaconta-16,24,26,28-tetraene-2,3,10,14,20-pentaone]
- increase in HI GMT ratio for heterologous strain versus placebo: higher
